B1: OR4K15 (parent)
chain: GUUAACGGUCAUAGGCCAUGGAAACUAGGAGCACCAUUUCGCUGCCAGUGAAGAAAUGAACAAAGAAAAUCUGGGCCAGGCAGGCAUCAAAAGAAAUAGUCUUGCGCUCAACCAGAAAGUCUGUAAUCAUUUUAAGGGUA

The source gives no read counts; variants with many changes may rest on few reads.

The text below walks through data of the RNAGym collection of RNA variant scans (doi:10.7554/elife.90254).

This series covers variants of B1. In words: self-cleavage, relative activity (ratio to wild type); higher = more cleavage; in vitro, sequencing; the parent is a self-cleaving ribozyme.
In the case of U100A U108A A129G U139C, the self-cleavage turned out to be 0.01.
With U103C A116G G137A, the self-cleavage was 0.19.
Take U100A U102C A126G: the self-cleavage amounted to 1.14.
As for A110G A118G U131C, the self-cleavage was determined as 0.03.
The value for A125G U127C A129G was 0.19; that for U102C U127C U130C was 1.14.
The value for U102C A117G U139C was 2.56.
For U100A G104A A116U the value was 0; for U103C U124A U132C, 0.47; for G104A U108C A111G, 0.02.
Consider U103C A111G A129G A134G U139C, for which the self-cleavage worked out at 0.
For A129C U132A A135U the value was 1.56; for U103C G104A A116G, 0; for G106C A117G A118U U122A U127C A135G, 0.
For U103C U108C A117G U131C the value was 0.
The value for A114U A129G U131A was 0.03.
For the variant A116G A117U U132C, the self-cleavage was 0.11.
The value for A110G A125G A126U A135G was 0.13; that for A126G U130C U131C was 1.05.
Turning to C105G U124A U131C, the self-cleavage amounted to 0.01.
For U102C C113U A117G the value was 0.5.
For the variant U108A A114U A135G, the self-cleavage is 0.
For A116G U132C U133C the value was 0.38; for U100C U102C A110G, 0.18.
As for G104A U122G U133C, the self-cleavage is 0.05.
For U102C A117G A140G the value was 2.74; for U100C U103A A116G U127C, 0.57.
For U108C A110C A129G the value was 0; for A111G G136U A140G, 0.01; for A110G A117G C128U, 0.18.
For A118G U120C U132C A140G the value was 0.17.
A117U C121U U122C: the self-cleavage was determined as 1.02.
A114U A118G U131C: the self-cleavage stood at 0.02.
The value for U100C U133C A134G A135G was 2.81; that for U102C A117C U120C was 0.78.
The value for U100C A117G A129G was 2.42; that for C107G A116G U131C G138A was 0.
For U103C A110C A118G the value was 0.04.
As to G106A U130A U131C, the self-cleavage is 0.01.
Turning to U100C U108A A117G U122A, the self-cleavage came out at 0.
Turning to A111G U122C U124A, the self-cleavage worked out at 0.
The value for U102C A116G A117G A126G was 0.7.
Turning to U102C C113A C121G U130C, the self-cleavage was determined as 0.
For A116G U122G U132C the value was 0.62; for U108G A110C A118G U124C, 0; for U120A U131C U132C, 1.19.
Consider U127C U130C G137A, for which the self-cleavage was determined as 0.59.
The value for U103C A117G U132C was 1.14; that for U120C U122G U131C was 1.96; that for A110G A116G A117G was 0.06.
For U100G A118G U122A the value was 2.23; for A111G U124C A125G, 0; for U103C G104A A118G A126G U127C, 0.
For the variant A111G A118G U127A, the self-cleavage was determined as 0.
In the case of A111G A118G U130C, the self-cleavage was 0.01.
The value for C113G U139C A140G was 0.04.
The value for A114C A116G U120C was 0.02.
Turning to A116G U124A U130C U139C, the self-cleavage was determined as 0.45.
Regarding A118G U122C U131A, the self-cleavage stood at 0.94.
For A110G U122C U130C, the self-cleavage came to 0.08.
As to A111G U131G A135G, the self-cleavage was 0.01.
For U102C A118G U127C U131C, the self-cleavage worked out at 1.56.
For the variant U120C U132C A135U, the self-cleavage worked out at 0.9.
The value for C113U A116G U122A A140G was 0; that for A111G U120C U139C was 0; that for U102C A111G U122A U130C was 0.01.
The value for C105U G115U A117U was 0.01; that for U100C U103G C105G U131C was 0; that for A116G U120C U131C was 0.3.
For A114U U127C U131G the value was 0.01; for A118G A135G A140G, 1.55; for A126G U127C U132C, 0.22.
For A111G A118G A126G, the self-cleavage is 0.01.
For U120C U124A A125G the value was 0.75; for A116G A134U A135G, 0.87; for C105U U108C A135G, 0.01.
The value for U108A A116U U131C was 0; that for U102C U130C A140G was 1.63.
For U108C A117G A125G A129G A134U, the self-cleavage was determined as 0.
Regarding A111G U124C U132C, the self-cleavage was 0.01.
The value for U122C A126U A135U was 0.36.
For A118G C128U A129G the value was 0.04.
The value for U100C A129G A135C was 2.09.
On to U102C C105U A117G U120C, for which the self-cleavage stood at 0.24.
Take U102C G104C U132C: the self-cleavage stood at 0.05.
Turning to U103C A126U U132C, the self-cleavage was found to be 0.8.
For the variant U102A G106A A114G A140G, the self-cleavage worked out at 0.
The value for A114U U131C A140G was 0.01; that for A118G U124C U130G was 0.44.
